Assay results as given in paper PMC4336329 (PLoS ONE, 2015).
About 14,000 (4.5%) of roughly 310,000 compounds showed an effect of 50% or more. Effects have a minus sign here. The list shows a part of the results.

Target: human ether-à-go-go-related gene (hERG) potassium channel (human, UniProt Q12809)
Assay: primary screen, population patch clamp on CHO cells stably expressing hERG
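Note: peak tail current of the secondary pulse compared with the same well before compound.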

Sequence of human ether-à-go-go-related gene (hERG) potassium channel (Q12809 whole entry, looked up): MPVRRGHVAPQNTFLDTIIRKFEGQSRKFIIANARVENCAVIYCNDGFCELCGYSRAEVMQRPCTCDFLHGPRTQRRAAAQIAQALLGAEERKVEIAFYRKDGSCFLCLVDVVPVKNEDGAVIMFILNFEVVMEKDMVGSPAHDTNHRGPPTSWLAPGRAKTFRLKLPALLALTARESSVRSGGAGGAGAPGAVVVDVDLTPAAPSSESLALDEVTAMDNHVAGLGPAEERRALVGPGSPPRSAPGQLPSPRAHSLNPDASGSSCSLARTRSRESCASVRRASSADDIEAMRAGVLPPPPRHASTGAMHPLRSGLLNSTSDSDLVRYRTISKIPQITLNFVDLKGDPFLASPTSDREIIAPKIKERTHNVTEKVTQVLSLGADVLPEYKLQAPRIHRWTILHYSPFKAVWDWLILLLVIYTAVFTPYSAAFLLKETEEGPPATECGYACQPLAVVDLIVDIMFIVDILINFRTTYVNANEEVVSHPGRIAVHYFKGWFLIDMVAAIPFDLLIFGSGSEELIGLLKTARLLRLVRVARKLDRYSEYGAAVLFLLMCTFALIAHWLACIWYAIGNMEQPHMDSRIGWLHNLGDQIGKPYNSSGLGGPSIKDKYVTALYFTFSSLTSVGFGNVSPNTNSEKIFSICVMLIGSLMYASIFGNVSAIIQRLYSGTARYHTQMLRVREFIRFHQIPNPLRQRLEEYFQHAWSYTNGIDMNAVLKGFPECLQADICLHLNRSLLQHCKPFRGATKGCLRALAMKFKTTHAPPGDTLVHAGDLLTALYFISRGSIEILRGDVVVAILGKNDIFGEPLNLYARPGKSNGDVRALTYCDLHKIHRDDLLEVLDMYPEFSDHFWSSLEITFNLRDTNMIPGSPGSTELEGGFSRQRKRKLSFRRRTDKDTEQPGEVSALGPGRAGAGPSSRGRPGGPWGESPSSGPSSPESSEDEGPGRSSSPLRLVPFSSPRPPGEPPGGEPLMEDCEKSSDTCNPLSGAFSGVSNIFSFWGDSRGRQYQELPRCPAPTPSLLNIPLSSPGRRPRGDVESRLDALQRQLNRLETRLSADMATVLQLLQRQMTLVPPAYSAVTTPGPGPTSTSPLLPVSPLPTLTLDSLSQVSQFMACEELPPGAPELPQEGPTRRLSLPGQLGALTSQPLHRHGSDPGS

| Compound | hERG current change (%, negative = inhibition) at 10uM [%] |
| --- | --- |
| CCOC(=O)c1nnn2c1nc(N1CCOCC1)c1ccccc12 | -20.4 |
| Br.CCn1c(=N)n(CC(=O)c2ccc(Br)s2)c2ccccc21 | -69.3 |
| Cc1cccc(-n2c(-c3ccncc3)n[nH]c2=S)c1 | 16 |
| CSc1ccc(C2NC(=O)c3ccccc3N2)cc1 (stereo not drawn) | 5.54 |
| Cc1ccc2cc(CCNC(=O)c3cccs3)c(=O)[nH]c2c1C | -0.17 |
| CCN(CC)S(=O)(=O)c1ccc(S(=O)(=O)N2CCC(C(=O)NC3CCN(Cc4ccccc4)CC3)CC2)cc1 | 14.8 |
| Cc1ccc2oc(=O)c3cnn(CC(=O)NC4CCC(C)CC4)c3c2c1 (stereo not drawn) | -4.77 |
| C=CCn1c(SCc2ccc(C(=O)O)cc2)nc2sc(C)c(C)c2c1=O | -4.36 |
| OCCN1CCN(Cc2ccc3ccccc3c2)CC1 | 16.3 |
| CSc1nc2ccc3nc(NC(=O)c4ccc(Cl)s4)sc3c2s1 | 1.39 |
| O=C(Nc1ccc2c(c1)OCO2)C1CC(c2ccccc2O)=NO1 (stereo not drawn) | 13.9 |
| CCCCN(CCCNC(=O)c1ccc(CS(=O)(=O)c2c(Cl)cccc2Cl)o1)Cc1ccccc1 | -66.1 |
| CCOC(=O)C1=NN(C(=O)c2ccco2)C2(CC2)C1 | -7.7 |
| O=C(Cc1c[nH]c2ccccc12)NC1(C(=O)NC2CCCC2)CCCCC1 | 14.2 |
| CC(C)c1nnc(-c2ccc(Cl)cc2)c(N(C)C)n1 | -15 |
| COc1cccc(NC(=O)N(CCCN2CCOCC2)C(C)c2cc3ccccc3o2)c1 (stereo not drawn) | -62.5 |
| Cc1cccc(NC(=O)CSc2nnc(NC(=O)c3ccco3)s2)c1 | 19.3 |
| CC1Cc2ccccc2N1C(=O)C1CCN(S(=O)(=O)c2cccs2)CC1 (stereo not drawn) | 6.09 |
| CCn1c(COC(=O)CNC(=O)c2cc(OC)c(OC)c(OC)c2)nc2cc(S(=O)(=O)N(C)C)ccc21 | -27.9 |
| CCN1C(=NCCN2CCOCC2)N[C@@H](c2ccccc2)C(C(=O)OC)=C1C | 7.6 |
| O=C(O)CCCC(=O)N1CCN(c2nc(-c3ccccc3Cl)c3cc(Br)ccc3n2)CC1 | -0.347 |
| COc1cc2c(cc1OC)CN(C(=O)CSc1nnc3scc(-c4ccccc4)n13)CC2 | -9.96 |

| Compound | hERG current change (%, negative = inhibition) at 10uM [%] |
| --- | --- |
| C=CCS/C(=N\n1cnc2ccccc2c1=O)N(CC)CC | 12.5 |
| COc1ccccc1CNS(=O)(=O)c1cc(C)ccc1OC | 9.32 |
| Cc1cc(C(=O)COC(=O)c2ccc[nH]c2=O)c(C)n1C | 3.61 |
| CC(C)c1ccccc1NC(=S)NCc1ccncc1 | 12.6 |
| COc1ccc(NS(=O)(=O)c2ccc(O)c(C(=O)OCC(=O)N3CC(C)OC(C)C3)c2)cc1 (stereo not drawn) | 4.92 |
| CCCNC(=O)c1onc(CSc2ccc(Cl)cc2)c1C(=O)NCC1CC1 | -8.67 |
| C/C(=C\c1ccccc1)C(=O)N1CCN(c2cccc(C(F)(F)F)c2)CC1 | -9.89 |
| O=c1[nH]c(=O)n(C2CCCO2)cc1F (stereo not drawn) | -1.29 |
| Cc1cccc(CN2CCC(C(=O)Nc3cccc(-c4cscn4)c3)CC2)n1 | -48.2 |
| O=C(C1CCC(CNS(=O)(=O)c2cccs2)CC1)N1CCN(c2ccc(Cl)cc2)CC1 (stereo not drawn) | -14.1 |
| CC(O)CNc1nc(Cl)c(C#N)s1 (stereo not drawn) | 2.88 |
| COc1ccc(CNC(=O)CCS(=O)(=O)c2ccc3c(c2)NC(=O)C(C)S3)cc1 (stereo not drawn) | 9.08 |
| CCOc1ccc(-c2csc(NC(=O)C3CCCO3)n2)cc1 (stereo not drawn) | 4.35 |
| O=C(NC1CCCCC1)N1CCN(Cc2nc3ccccc3c(=O)[nH]2)CC1 | -24.3 |
| CN(C)S(=O)(=O)c1ccc(Cl)c(C(=O)OCC(=O)NNC(=O)c2cccs2)c1 | 3.65 |
| CCOC(=O)CC(=O)CSc1nc(-c2ccc3c(c2)OCO3)cc(C(F)(F)F)c1C#N | 13.2 |
| CC(=O)Nc1ccc(NC(=O)COC(=O)[C@@H](NC(=O)c2ccc(F)cc2)C(C)C)cc1 | 2.3 |
| COc1ccc(S(=O)(=O)NC(C)C(=O)Nc2cccc([N+](=O)[O-])c2)cc1 (stereo not drawn) | -7.24 |
| Cc1ccc(/C=N/Nc2ccc(Cl)nn2)cc1 | -0.808 |
| CC(C)N1CCc2c(sc(NC(=O)c3ccc(C(=O)c4ccccc4)cc3)c2C(N)=O)C1.Cl | -38.2 |
| O=C(Nc1c(S(=O)(=O)c2ccc(Cl)cc2)csc1Br)c1ccccc1Cl | -42.4 |
| CC(C)CCNC(=O)C1CCN(C(=O)N(C)C)CC1 | 14.5 |

| Compound | hERG current change (%, negative = inhibition) at 10uM [%] |
| --- | --- |
| CCOc1ccc2[nH]c(=O)c(C(c3nnnn3CCOC)N3CCOCC3)cc2c1 (stereo not drawn) | 10.2 |
| CCS(=O)(=O)NCC(c1ccco1)N1CCN(c2ccc(F)cc2)CC1 (stereo not drawn) | -11.5 |
| O=[N+]([O-])c1cccc(-c2ccc(CN3CCCCC3)o2)c1 | -35 |
| Cc1cccc(N2CCN(c3nc4ccccc4n4cnnc34)CC2)c1C | 15 |
| CCn1nccc1C(=O)Nc1ccc(Cl)c(Cl)c1 | -25.5 |
| Cc1cccc(NC(=O)C2CCCN(S(=O)(=O)c3ccc(-n4cnnn4)cc3)C2)c1 (stereo not drawn) | -35.9 |
| CCOc1ccc(OCCC(=O)OCC(=O)Nc2cc(C)nn2-c2ccccc2)cc1 | -39.6 |
| Cc1ccc(C(=O)NCCn2ccc3ccccc32)cc1[N+](=O)[O-] | -36.3 |
| O=c1nc2ccccc2c(NS(=O)(=O)c2ccc(Cl)cc2)n1-c1ccccc1 | 10.3 |
| O=C(Nc1ccc(S(=O)(=O)Nc2ncccn2)cc1)c1ccccc1NS(=O)(=O)c1ccc(Cl)cc1 | 15.4 |
| O=C(CSc1nc2ccccc2s1)NCC1CCCO1 (stereo not drawn) | 7.82 |
| COc1ccc(OCCSc2nc3ccccc3n2CC(=O)O)cc1 | 3.81 |
| CSc1nnc(C)c(=O)n1COC(=O)c1ccc(S(=O)(=O)N(C)C)cc1 | -26.8 |
| CCO[C@@H]1OC(C(=O)O)=C[C@H](c2cn(C(C)=O)c3ccccc23)[C@H]1CCCO | 13.7 |
| CC(C)(CO)C(O)C(=O)NCCC#N (stereo not drawn) | 5.14 |
| Cl.OC(COc1ccc(Br)cc1)CN1CCCC1 (stereo not drawn) | -24.3 |
| NC(=O)CC[C@@H]1NC(=O)[C@@H]2CCCN2C(=O)c2cc([N+](=O)[O-])cc(I)c2NCCC[C@@H](C(N)=O)NC1=O | 8.4 |
| Cc1ccc(COc2ccsc2-c2n[nH]c(=S)n2C)cc1 | 6.14 |
| CCOc1ccc(S(=O)(=O)N2CCCC(C(=O)NCc3cccnc3)C2)cc1 (stereo not drawn) | -17.5 |
| CCCOc1ccc(/C=C2\SC(N)=NC2=O)cc1OC | 3.66 |
| CCC1CN(C(=O)N2CCC(C(=O)NCc3cc(OC)c(OC)c(OC)c3)CC2)c2ccccc2O1 (stereo not drawn) | 7.08 |
| O=C(Nc1cc(Cl)cc(Cl)c1)c1ccno1 | 1.23 |

| Compound | hERG current change (%, negative = inhibition) at 10uM [%] |
| --- | --- |
| O=C(Nc1cccc(Cl)c1Cl)C1CCN(C(=O)c2cccs2)CC1 | -9.78 |
| CCc1nc2ccc(C(=O)N(CC)CC(=O)Nc3c(F)cccc3F)cc2nc1CC | -3.65 |
| NC(=O)C(c1ccc(Cl)cc1)c1ncc(C(F)(F)F)cc1Cl (stereo not drawn) | -9.62 |
| O=C(NCCCCNC(=O)c1c(Cl)cccc1Cl)c1c(Cl)cccc1Cl | 10.2 |
| Cc1cccc(OCC(=O)NCCCNC(=O)c2cccnc2)c1 | 18.8 |
| Cc1cccc(NCN2C(=O)C3C4C=CC(C4)C3C2=O)c1 (stereo not drawn) | -7.49 |
| CCOc1ccc(OCC)c(NC(=O)CC2Oc3ccccc3NC2=O)c1 (stereo not drawn) | 1.2 |
| Cc1cccc(-n2ccnc2CN2CCN(C3CCCC3)C(CCO)C2)c1 (stereo not drawn) | -59.1 |
| O=C(C1CCC1)N1CCc2cc(S(=O)(=O)N3CCCCC3)ccc21 | -7.1 |
| COC(=O)c1ccc(NC(=O)c2cc3sccc3n2C)cc1 | 5.05 |
| COc1ccccc1-c1cc(C(F)(F)F)nc(S(C)(=O)=O)n1 | -1.71 |
| CC(C)c1onc(C(=O)N2CCC3(CC2)OCCO3)c1[N+](=O)[O-] | -2.76 |
| CC(=NCCCn1ccnc1)c1c(O)n(C2CCCCC2)c(=O)[nH]c1=O | -14.6 |
| CCn1c(CCCc2ccc(OC)c(C)c2)n[nH]c1=S | 7.46 |
| Cc1ccc(N2C(=O)C3C4C=CC(CC4)C3C2=O)cc1Cl (stereo not drawn) | 17.4 |
| COc1ccc([C@H]2CC(=O)C=C(c3cccc(Cl)c3O)C2)cc1OC | -26.7 |
| Cc1cccc(NS(=O)(=O)c2cc(C(=O)NCCC3=CCCCC3)ccc2Cl)c1 | -0.512 |
| NS(=O)(=O)c1ccc(CCNC(=O)CSc2ccc3ccccc3c2)cc1 | -8.58 |
| Clc1ccc(Oc2nnnn2-c2ccccc2)cc1 | -21 |
| Cc1cc(SCC(N)=O)nc(SCC(=O)c2ccccc2)n1 | -8.23 |
| Cc1cc(CNC(=O)c2ccc3nc(Cc4ccccc4F)oc3c2)nn1C | 5.16 |
